The structures appear in SMILES notation. Hit rate of the full screen: of about 150,000 compounds, about 540 (0.36%) showed an effect of 50% or more. This is one part of the list.

As usually defined, the % Inhibition is the drop in the measured response relative to a control, in per cent.

The test system of the assay is Plasmodium falciparum. Briefly: Primary screen in NF54 nanoGlo assay, in single point, at 2uM, 72h; a lower Z score goes with more inhibition. In kind it is functional, Erythrocyte. Particulars: timepoint 72 hour.
Turning to `COc1ccc2nc3oc(C(=O)N[C@@H](C)CCc4ccccc4)cc3cc2c1`, the “% Inhibition” value worked out at 29% and the Z score is listed as -3.88.
Taken in the same sequence, the figures for `CCCCn1nc(CC2CCN(C)CC2)nc1Cn1cc(C)c(=O)[nH]c1=O` were 0% and 0.07.
The matching figures for `O=C(CN1C(=O)C2(CCCC2)N=C1O)Nc1ccc(Oc2ccccc2)cc1`: 3% and -0.36.
Consider `CCCN1CCN(C(=O)CCn2ccnc2)C(C)(C)C1=O`, for which the “% Inhibition” value is recorded as -17% and the Z score is 1.81.
Taken in the same sequence, the figures for `CCc1onc(C)c1[C@@H]1CCCN1Cc1cc(OC)c(O)c(OC)c1` were -6% and 1.
With `COCC1(CNCc2ccc(C)cn2)CCC1`, the “% Inhibition” value stood at 11% and the Z score is recorded as -1.53.
Taken in the same sequence, the figures for `Cn1cc([C@@H](NC(=O)c2ccnc(C(=O)O)c2)C(C)(C)C)cn1` were -10% and 1.55.
On to `O=C1CC[C@@H](C(=O)NCCc2ccc(O)cc2)NC(=O)N1`, for which the “% Inhibition” value was 3% and the Z score was -0.43.
Turning to `Cn1cc(NC(=O)c2cc(-c3cccc(Cl)c3)nn2C)cn1`, the “% Inhibition” value was -8% and the Z score is recorded as 1.07.
On to `CC(NC(=O)c1ccoc1)C(=O)NC(C#N)c1cccc(Cl)c1` (stereo not given), for which the “% Inhibition” value is reported as -6% and the Z score is on record as 1.1.
`O=C1CCCc2cc3c(cc2N1)OCCO3`: the “% Inhibition” value was -2% and the Z score is on record as 0.3.
The matching figures for `Cn1cccc1C(O)CCNC(=O)C1CC=CCC1` (stereo not given): -8% and 0.92.
Regarding `CO[C@@H](Cn1c(=O)ccn1-c1ccccn1)C1CCCC1`, the “% Inhibition” value was -5% and the Z score is 0.96.
With `Cc1ccc2c(C)cc(N3CCC[C@H](O)CC3)nc2c1C`, the “% Inhibition” value is reported as 5% and the Z score is -1.08.
Taken in the same sequence, the figures for `CN1c2ccccc2N(CCNC(=O)CC(F)(F)F)S1(=O)=O` were -16% and 2.4.
On to `Cc1ccccc1[C@]1(O)CCN(CC(=O)NCC2CCCCC2)C1`, for which the “% Inhibition” value was -5% and the Z score is 0.95.
Consider `CN(C(=O)c1cc(=O)c2cccc(F)c2[nH]1)[C@H]1CS(=O)(=O)C[C@@H]1O`, for which the “% Inhibition” value is reported as -16% and the Z score was 2.25.
The matching figures for `CN1C[C@@H](NC(=O)Nc2ccc(-c3cc[nH]n3)cc2)CCC1=O`: 1% and -0.15.
Taken in the same sequence, the figures for `COc1ccc(-c2nnc(N3C[C@@H]4[C@@H](CF)[C@@H]4C3)n2C)c(OC)c1` were -5% and 0.88.
With `O=C(c1c(F)cccc1F)N1CCC[C@H]1c1cccs1`, the “% Inhibition” value is recorded as -3% and the Z score amounted to 0.48.
`CC(C)C(=O)N1CCC([C@@H]2CN(C(=O)c3ccc4ccccc4n3)C[C@H]2CO)CC1`: the “% Inhibition” value stood at 3% and the Z score was -0.39.
Take `CCCCn1nc(-c2ccco2)nc1-c1cn[nH]c1`: the “% Inhibition” value is on record as -7% and the Z score was 1.22.
The matching figures for `Cc1cc(C2CCC2)nc(N2C[C@H](NC(=O)CCO)[C@@H](C(C)C)C2)n1`: -10% and 1.72.
In the case of `CCn1nc(NC(=O)c2ccc(CN3CCN(C(C)C)CC3)cc2)cc1C`, the “% Inhibition” value is reported as -3% and the Z score turned out to be 0.54.
In the case of `O=C(NCCn1cc(-c2ccncc2)cn1)C1CCCCC1`, the “% Inhibition” value was determined as 7% and the Z score is on record as -0.94.
Taken in the same sequence, the figures for `CCOc1ccc(C(=O)N2CCCCC2)cc1N[C@H]1CCN(C(C)C)C1=O` were 8% and -1.04.
For the compound `COCCN(C)S(=O)(=O)c1cc2c(cc1N1CCCCCC1)Oc1ccccc1NC2=O`, the “% Inhibition” value is on record as -10% and the Z score amounted to 1.46.
`COc1ccc(S(=O)(=O)N2CCN3C(=O)N(C4CCOCC4)C[C@H]3C2)cc1`: the “% Inhibition” value is -2% and the Z score came out at 0.26.
The matching figures for `COc1cc(C(=O)N(CCO)Cc2ccsc2)on1`: 11% and -1.54.
Taken in the same sequence, the figures for `Cc1nc2cc(NC(=O)c3ccc(=O)[nH]n3)ccc2o1` were -9% and 1.73.
Taken in the same sequence, the figures for `O=c1c2nccnc2ncn1Cc1ccc2c(c1)CCCO2` were -10% and 1.68.
For the compound `CCN(C(=O)CN1C(=O)COc2cc(Cl)ccc21)c1cccc(C)c1`, the “% Inhibition” value is on record as -4% and the Z score came out at 0.59.
The matching figures for `O=C(O)C1CCCC(C(=O)N2Cc3ccccc3C2)C1` (stereo not given): -17% and 2.38.
In the case of `COc1ccc(C[C@H]2CCOC3(CCN(C(=O)c4cccc(C)c4)CC3)C2)cc1`, the “% Inhibition” value is recorded as -10% and the Z score was determined as 1.28.
Take `CCn1ccnc1[C@H]1OCCC[C@@H]1c1nc(-c2nnc(-c3ccccc3)o2)no1`: the “% Inhibition” value is given as -2% and the Z score amounted to 0.25.
With `CC(C)Cc1ncc(-c2nc([C@H]3CN4CCC[C@H]4CO3)no2)s1`, the “% Inhibition” value is on record as -6% and the Z score came to 0.73.
The matching figures for `CC(=O)N1CCCN(CCC(=O)Nc2sccc2C#N)CC1`: 2% and -0.41.
Take `CNCC#CCOc1c(C)ccc(C)c1C`: the “% Inhibition” value was found to be 9% and the Z score was -0.99.
The matching figures for `C=Cn1cc(CN2CC[C@H](CNC(=O)NC3CCCC3)C2)cn1`: -12% and 2.31.
In the case of `CN(C)C(=O)[C@@]12CCCC[C@H]1N(CCc1ccccc1)C(=O)CC2`, the “% Inhibition” value is -3% and the Z score was 0.31.
`O=C(Nc1c(O)[nH]c2ccccc2c1=O)c1ccccc1Br`: the “% Inhibition” value is on record as -2% and the Z score was 0.3.
Regarding `C[C@H]1CN(CCn2ccnc2)CCC1(F)F`, the “% Inhibition” value is given as 7% and the Z score was -0.91.
The matching figures for `CC1(C)CN(C(=O)C[C@H]2CCCO2)Cc2cn[nH]c21`: -12% and 2.2.
The matching figures for `CCS(=O)(=O)N1CCCC(C(=O)N2c3ccccc3CC2C)C1` (stereo not given): -3% and 0.45.
Taken in the same sequence, the figures for `N=C1C2=C3C=CC=C3C=C2CN1c1cccc2ccccc12` were 0% and -0.08.
For the compound `Cc1cccc2nc(-c3nc(C4CCCC4)nn3CCO)cn12`, the “% Inhibition” value is listed as -8% and the Z score was determined as 1.51.
In the case of `O=C(c1ccccc1Cl)N1CCC[C@H](OCc2ccc(Br)cc2)C1`, the “% Inhibition” value was -1% and the Z score amounted to 0.18.
The matching figures for `C[C@](O)(CNc1ccc(C#N)cc1F)c1cccs1`: -1% and 0.11.
For the compound `COc1cccc([C@H]2CN(CC(N)=O)C[C@@H]2NC(=O)COC(C)C)c1`, the “% Inhibition” value is reported as -12% and the Z score is reported as 1.88.
On to `C[C@@H](C(=O)N1CCC2(CC1)NCCNC2=O)c1ccc(-c2ccccc2)c(F)c1`, for which the “% Inhibition” value came out at 0% and the Z score is on record as -0.04.
With `C[C@H]1CN(C(=O)c2cccc3c2OCO3)CCN1`, the “% Inhibition” value is reported as -4% and the Z score is reported as 0.43.
Taken in the same sequence, the figures for `CN(Cc1cccnc1)c1ncc(C(C)(C)C(=O)O)c(N2CCOCC2)n1` were -5% and 0.91.
Take `Cc1c(-c2cccs2)nc2ccc(Cl)cc2c1-c1ccccc1`: the “% Inhibition” value is -12% and the Z score stood at 2.31.
Turning to `CCN(CC)S(=O)(=O)c1ccc(C(=O)Nc2cc(C)nn2-c2nc3c(c(=O)[nH]2)CCC3)cc1`, the “% Inhibition” value was 2% and the Z score is on record as -0.2.
Consider `Cc1noc(C)c1CCC(=O)N1CCN(c2ccnc3nncn23)CC1`, for which the “% Inhibition” value was -4% and the Z score amounted to 0.63.
On to `COCCN(Cc1c(-c2ccccc2)nn(C)c1Oc1ccccc1OC)C(=O)NC(C)C`, for which the “% Inhibition” value was -15% and the Z score was 1.34.
The matching figures for `CCc1nnc(NCC(C)(C)CCS(C)(=O)=O)c(C#N)c1CC`: 2% and -0.31.
Taken in the same sequence, the figures for `CN(Cc1ccccc1)C(=O)c1cc(NC(=O)c2ccc3c(c2)OCO3)ccc1N1CCCN(C(=O)C2CCCC2)CC1` were 1% and -0.18.
Taken in the same sequence, the figures for `Cc1ocnc1C(=O)NCC1(CN2CCN(C)CC2)CC1` were 1% and -0.14.
For `Cc1noc(C[C@H]2CCCN(Cc3cnns3)C2)n1`, the “% Inhibition” value came to 3% and the Z score is given as -0.34.
Taken in the same sequence, the figures for `Cc1ccccc1CNC(=O)CN1CCN(C(=O)Nc2ccc(Br)cc2)CC1=O` were -12% and 1.51.
As for `COc1ccc([C@@H](NCc2nnc(C(C)C)[nH]2)C2CC2)c(F)c1`, the “% Inhibition” value was -2% and the Z score worked out at 0.29.
The matching figures for `C=CCCCN1[C@@H](CO)CCS1(=O)=O`: 22% and -2.78.
Taken in the same sequence, the figures for `O=C(CCCC1CCOCC1)Nc1cccc(F)c1-c1nc[nH]n1` were -15% and 1.52.
As to `Cc1ccc(-c2ccc(C(=O)N(CCO)Cc3nccs3)cc2)c(C)n1`, the “% Inhibition” value was -6% and the Z score is 0.87.
For the compound `Cc1ccccc1NC(=O)Cc1nc(C)c(-c2ccccc2)s1`, the “% Inhibition” value is 1% and the Z score is -0.09.
On to `Cc1nn(C)c(C)c1C(=O)N1CCOC2(CC3CCC2C3)C1` (stereo not given), for which the “% Inhibition” value is reported as -11% and the Z score is 1.05.
The matching figures for `CC[C@@H](CO)NCc1ccc(OC(C)C)cc1`: -13% and 1.71.
Taken in the same sequence, the figures for `CNc1snc(C)c1C(=O)N1CCN(c2ccccc2OC)CC1` were -8% and 1.4.
Taken in the same sequence, the figures for `CNC(=O)NC1CCN(C(=O)[C@]2(C)CCOc3ccccc32)CC1` were 7% and -1.13.
For the compound `Cc1ccc(C2CCN(C(=O)Nc3cnc4c(c3)CC(N)CC4)C2)c(C)c1` (stereo not given), the “% Inhibition” value was found to be 1% and the Z score was -0.12.
Taken in the same sequence, the figures for `Cc1ccc(C)c(CN(Cc2nc(C(=O)NCc3ccco3)co2)[C@@H](C)c2ccccc2)c1` were -18% and 3.44.
Regarding `CCc1ccccc1N1C(=O)C2C(O)CCCN2C1=O` (stereo not given), the “% Inhibition” value is -3% and the Z score is listed as 0.44.
Consider `Cc1cnc(C2CC2)n1CCNC(=O)CC(C)C`, for which the “% Inhibition” value is on record as -1% and the Z score was found to be 0.25.
In the case of `O=C(NCCC1=CCCCC1)c1coc(CN2CCN(Cc3ccccc3)CC2)n1`, the “% Inhibition” value is reported as -7% and the Z score is given as 0.96.
As to `O=C(Cc1ncccc1F)N1CCCS(=O)(=O)C[C@H]1C1CC1`, the “% Inhibition” value was -9% and the Z score is on record as 1.91.
In the case of `CC(C)Cn1cncc1CNC(=O)CN1CCN(C)C1=O`, the “% Inhibition” value is -21% and the Z score came out at 1.84.
The matching figures for `O=C(N[C@@H]1CN(Cc2ccc(CO)o2)CCC[C@H]1O)c1ccc(OCc2ccccc2)cc1`: 26% and -2.94.
Taken in the same sequence, the figures for `O=C(NCc1ccc(-n2cnc3ccccc32)cc1Cl)[C@H]1CCOC1` were 31% and -3.5.
Taken in the same sequence, the figures for `O=C(NC[C@H](c1ccc(F)cc1)c1c[nH]c2ccccc12)Nc1ccc(Cl)cc1` were -7% and 1.23.
Turning to `CCCCNC(=O)c1c(-c2ccc(Cl)cc2)c2cc(CC)ccc2n1C`, the “% Inhibition” value is recorded as -2% and the Z score came to 0.24.
Taken in the same sequence, the figures for `COc1cccc2c1NC(=O)C[C@H]2C(=O)NCc1ccc2c(c1)CCCC2` were -11% and 2.18.
As for `COC(C)(C)CNC(=O)Cc1cc(C)[nH]n1`, the “% Inhibition” value came out at 2% and the Z score was -0.26.
Taken in the same sequence, the figures for `CCOC(=O)c1cc(-c2cccc(NC(=O)c3ccc4nonc4c3)c2)n(-c2ccccc2F)n1` were -7% and 1.01.
The matching figures for `CC(C)(C)OC(=O)N[C@](C)(CO)Cc1ccccc1`: -12% and 1.67.
